About 4,300 (8.3%) of roughly 52,000 compounds were called active. Rule as the data show it: active = survival mostly below about 52% (no sharp cut-off); inactive = mostly above about 56%. Some of the results follow.
system: DeltatarO mutant; assay: S. aureus survival, RN4220 and DeltatarO strains – OD600, teichoic acid synthesis inhibitors, primary screen (AID 463173); conditions: S. aureus RN4220 wild type/DeltatarO growth, OD600, 18 h, hits give low values, screened at 18.75 µg/mL (by protocol)

Structure (SMILES)	survival
Cc1ccccc1C(=O)Nc1ccc2nc(Nc3cccc(C(F)(F)F)c3)cc(C)c2c1	inactive: 63%
CC1CCCN(Cc2nc3c(c(=O)n(C)c(=O)n3C)n2Cc2ccc(Cl)cc2Cl)C1 (stereo not given)	inactive: 94%
NS(=O)(=O)c1ccc(CCNC(=O)c2ccc3nc(Cc4ccccc4)oc3c2)cc1	inactive: 92%
CC(C)(C)C1CCc2c(sc(NC(=O)CCC(=O)O)c2C(=O)Nc2ccccc2C(F)(F)F)C1 (stereo not given)	active: -6%
CCCc1cc(=O)oc2cc(C)c3c(-c4cccc(OC)c4)coc3c12	inactive: 67%
CCOC(=O)c1cccc(NC(=O)N2CC(CC)Sc3ccccc32)c1 (stereo not given)	inactive: 82%
COc1cccc(-c2nc(SCC(=O)NCC3CCCO3)c(-c3ccc(F)cc3)[nH]2)c1 (stereo not given)	inactive: 62%
Cc1ccccc1OCC(=O)Nc1ccc(OCc2cc(=O)n3ccsc3n2)cc1	inactive: 94%
CCOC(=O)c1cccc(NC(=O)N2CCC(CN3CCc4ccccc4C3)CC2)c1	inactive: 72%
FC(F)(F)c1cccc(N2CCN(Cc3nnc(-c4ccc5c(c4)OCO5)o3)CC2)c1	inactive: 54%
O=C(Cc1ccc(F)cc1)NCc1nc2cccnc2n1Cc1ccc(F)cc1	inactive: 94%
O=C(Nc1cccc(C(=O)N2CCN(c3ccccc3F)CC2)c1)c1nsc2ccccc12	inactive: 70%
COc1ccccc1Nc1c2c(nc3ccc(NC(=O)c4cccc(OC)c4OC)cc13)CCCC2	active: 46%
COC(=O)c1cc2sccc2n1Cc1nc(-c2cccc(Br)c2)oc1C	inactive: 70%
O=C(Nc1ccc(C(F)(F)F)cc1)C1CCCN(S(=O)(=O)c2cccc3cccnc23)C1 (stereo not given)	inactive: 77%
COc1ccc(CCNC(=O)c2cnc3sc(N4CCC(C)CC4)nn3c2=O)cc1OC	inactive: 75%
CCC1CCCCN1C(=O)CSc1n[nH]c(-c2ccccc2Cl)n1 (stereo not given)	inactive: 102%
CCN(c1ccc(OC)cc1)S(=O)(=O)c1nnc(NC(=O)c2ccccc2C)s1	active: 37%
NC(=O)C1CCN(Cc2nc3ccccc3c(=O)[nH]2)CC1	inactive: 71%
COc1cccc(CNC(=O)c2ccc(-c3nc(CS(=O)(=O)c4ccccc4)c(C)o3)cc2)c1	inactive: 72%
CN(C)CCNC(=O)CN1C(=O)CCn2nc(-c3cn(C)c4ccccc34)cc21	inactive: 96%
CCc1ccc(NC(=O)Cn2ncc3c(C)n(Cc4cccc(Cl)c4)c(C)c3c2=O)cc1	inactive: 89%
Cc1cc(C(F)(F)F)nc(SCC(=O)Nc2c(C)n(C)n(-c3ccccc3)c2=O)n1	inactive: 118%
CCc1ccccc1Nc1cc(C(=O)NC2CCC(C)CC2)c2ccccc2n1 (stereo not given)	inactive: 70%
COc1ccc(CNC(=O)c2cc(-c3ccc(C)c(C)c3)n[nH]2)cc1	inactive: 94%
CCc1c(C)sc(NC(=O)C2c3ccccc3Oc3ccccc32)c1C(=O)OC(C)C	active: 41%
CCOC(=O)C(=O)Nc1c(C(=O)Nc2cccc(F)c2)oc2ccccc12	inactive: 97%
COc1ccccc1N1CCN(c2nc3c(S(=O)(=O)c4ccc(C)c(C)c4)nnn3c3ccc(Cl)cc23)CC1	inactive: 81%

Structure (SMILES)	survival
Cc1cccc(-n2ccnc2SCC(=O)Nc2nc3ccccc3s2)c1	inactive: 93%
Cc1ccccc1NC(=O)C(NC1CCCCC1)C(C)C (stereo not given)	inactive: 79%
CCN(CCCNC(=O)c1nn(-c2ccc(OC)c(Cl)c2)c(=O)c2c1c1ccccc1n2C)c1cccc(C)c1	inactive: 94%
CCOC(=O)c1ccc(NS(=O)(=O)c2cc(Br)cc3c2N(C(C)=O)C(C)C3)cc1 (stereo not given)	inactive: 55%
Cc1ccc(Cn2c(CNS(=O)(=O)c3ccc(Cl)s3)nc3cccnc32)cc1	inactive: 124%
Cc1cccc(-c2nc(SCC(=O)NCc3ccco3)c3c(=O)n(C)c(=O)n(C)c3n2)c1	inactive: 74%
Cc1cc2[nH]c(=O)c(=O)[nH]c2cc1S(=O)(=O)N1CCN(c2cccc(C)c2C)CC1	inactive: 94%
Cc1ccc(-c2nnc3ccccc3c2C(=O)Nc2cccc(Cl)c2)cc1	inactive: 107%
Cn1c(=O)c(=O)n(C)c2cc(N3CCOCC3)c(NS(=O)(=O)c3ccc(F)c(Cl)c3)cc21	inactive: 67%
COc1ccc(NC(=O)c2cc3cc(C)ccc3n2C)cc1	inactive: 60%
N#C/C(C(=O)c1ccccc1)=C1/Nc2ccccc2C1=O	inactive: 82%
CCOC(=O)c1cccc(NC(=O)C2CCCN(c3nnc(C)c4c(C)n(-c5ccccc5)nc34)C2)c1 (stereo not given)	inactive: 94%
O=C(Nc1cc(Cl)cc(Cl)c1)c1cc(S(=O)(=O)N2CCc3ccccc3C2)ccc1F	inactive: 94%
COc1ccc(C(=O)Nc2c(C(=O)c3ccccc3)oc3ccccc23)cc1	inactive: 72%
COc1ccc(OC)c(C2C(C(=O)Nc3ccccc3OC)=C(C)Nc3c(C(=O)Nc4ccc(F)cc4)cnn32)c1 (stereo not given)	inactive: 126%
COc1ccc(C(=O)Nc2nnc(S(=O)(=O)N(CC(C)C)c3ccccc3)s2)cc1	inactive: 51%
Cc1ccc(Cn2c(C(=O)O)c(CNCc3cccs3)c3ccc(C)cc32)cc1	active: 48%
COc1ccc(NC(=O)c2ccc3c(c2)nnn3C2CCCC2)cc1Cl	inactive: 88%
Cc1ccc(Cl)cc1NC(=O)c1ccc2snnc2c1	inactive: 127%
COc1cc(NC(=O)NCCn2nnc3cc(S(=O)(=O)N(C)C)ccc32)cc(OC)c1	inactive: 90%
O=C(O)CCOc1ccc2c(c1)OCCO2	inactive: 82%
CC(C)(C)OC(=O)N1CCC(c2c(C(=O)NCc3ccc4c(c3)OCO4)cnn2-c2ccccc2Cl)CC1	inactive: 60%
Cc1ccc2c(=O)c(C(=O)c3ccc(F)cc3)cn(CC(=O)NCc3ccccc3Cl)c2n1	inactive: 90%
Cc1ccc(-c2nn(CC(=O)NC3CCCCC3)c3c2cnc2ccccc23)cc1	inactive: 64%
Cc1ccc(Cl)cc1N1CCN(C(=O)c2cccn2-c2nnc(N3CCCC3)s2)CC1	inactive: 101%
CCN(C(=O)c1cc(S(=O)(=O)N2CCc3ccccc32)cn1C)c1cccc(C)c1	inactive: 71%
CC1=C(C(N)=O)C(c2ccc(F)cc2)n2nc(-c3ccc(N(C)C)cc3)nc2N1 (stereo not given)	inactive: 74%

Reference: PubChem BioAssay AID463173 (ICCB-Longwood Screening Facility, Harvard Medical School, 2010)
